Single values are uncertain, as repeats are few or missing.
Columns and labels:
CHO-K1 [1] = assay: micronucleus frequency (% of nucleated events); higher = more micronuclei (genotoxic)
CHO-K1 [2] = assay: hypodiploid nuclei frequency (% of nucleated events); higher = more hypodiploid events (aneugenic)
Procedure: (§1)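 Flow-cytometric in vitro micronucleus assay (Litron MicroFlow) in CHO-K1 cells in 96-well plates, 19 concentrations (4.5-200 µM, n=1 per concentration). Without S9, cells were exposed for 24 h and sampled at 48 h. With Aroclor 1254-induced rat liver S9, cells were exposed for 3-4 h and sampled at 27-28 h. Read-outs are %MN and %hypodiploid nuclei relative to nucleated events, and relative survival as the nuclei-to-bead ratio versus the 1% DMSO vehicle control (x100).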

CHO-K1 [3] = assay: relative survival (nuclei to bead ratio vs DMSO control) (% of vehicle control); higher = more surviving cells
Procedure: as §1
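For hypodiploid nuclei frequency (% of nucleated events) in this document: hypodiploid nuclei gated on a flow cytometer with 488 nm excitation after SYTOX Green staining, cultures at 37 °C, positive controls vinblastine without S9 and cyclophosphamide with S9.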
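For micronucleus frequency (% of nucleated events) in this document: cells lysed with nuclei stained by SYTOX Green, then micronucleus-gated events counted against nucleated events by flow cytometry with 488 nm excitation.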
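For relative survival (nuclei to bead ratio vs DMSO control) in this document: Lysed-cell nuclei stained with SYTOX Green and counted against counting beads by flow cytometry at 488 nm excitation, with vinblastine (no S9) and cyclophosphamide (plus S9) as positive controls.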

ClCCOCCCl [Bis(2-chloroethyl) ether]
Details	hypodiploid nuclei frequency, CHO-K1 [2] [%]	micronucleus frequency, CHO-K1 [1] [%]	relative survival, CHO-K1 [3]
concentration: 4.55 (µM), S9 metabolic activation: with S9, exposure time: 3-4 hours	0.22	1.52	92
concentration: 4.55 (µM), S9 metabolic activation: without S9, exposure time: 24 hours	0.96	1.68	103
concentration: 5.69 (µM), S9 metabolic activation: with S9, exposure time: 3-4 hours	0.26	1.2	111
concentration: 5.69 (µM), S9 metabolic activation: without S9, exposure time: 24 hours	0.82	2.24	87.8
concentration: 7.11 (µM), S9 metabolic activation: with S9, exposure time: 3-4 hours	0.22	1.62	113
concentration: 7.11 (µM), S9 metabolic activation: without S9, exposure time: 24 hours	0.74	1.38	94.5
concentration: 8.88 (µM), S9 metabolic activation: with S9, exposure time: 3-4 hours	0.28	1.06	88.5
concentration: 8.88 (µM), S9 metabolic activation: without S9, exposure time: 24 hours	0.96	3.48	101
concentration: 11.1 (µM), S9 metabolic activation: with S9, exposure time: 3-4 hours	0.28	1.9	82.4
concentration: 11.1 (µM), S9 metabolic activation: without S9, exposure time: 24 hours	0.76	2.66	110
concentration: 13.9 (µM), S9 metabolic activation: with S9, exposure time: 3-4 hours	0.28	1.42	98.3
concentration: 13.9 (µM), S9 metabolic activation: without S9, exposure time: 24 hours	0.76	3.34	102
concentration: 17.4 (µM), S9 metabolic activation: with S9, exposure time: 3-4 hours	0.34	1.14	115
concentration: 17.4 (µM), S9 metabolic activation: without S9, exposure time: 24 hours	0.72	2.24	121
concentration: 21.7 (µM), S9 metabolic activation: with S9, exposure time: 3-4 hours	0.22	0.98	75.3
concentration: 21.7 (µM), S9 metabolic activation: without S9, exposure time: 24 hours	0.76	1.86	121
concentration: 27.1 (µM), S9 metabolic activation: with S9, exposure time: 3-4 hours	0.26	1.14	131
concentration: 27.1 (µM), S9 metabolic activation: without S9, exposure time: 24 hours	0.96	1.84	70.5
concentration: 33.9 (µM), S9 metabolic activation: with S9, exposure time: 3-4 hours	0.22	1.16	111
concentration: 33.9 (µM), S9 metabolic activation: without S9, exposure time: 24 hours	0.68	2.62	79.5
concentration: 42.4 (µM), S9 metabolic activation: with S9, exposure time: 3-4 hours	0.22	0.88	81.9
concentration: 42.4 (µM), S9 metabolic activation: without S9, exposure time: 24 hours	0.68	1.6	99.4
concentration: 53 (µM), S9 metabolic activation: with S9, exposure time: 3-4 hours	0.26	1.04	85
concentration: 53 (µM), S9 metabolic activation: without S9, exposure time: 24 hours	0.6	1.84	72.3
concentration: 66.2 (µM), S9 metabolic activation: with S9, exposure time: 3-4 hours	0.14	0.96	81
concentration: 66.2 (µM), S9 metabolic activation: without S9, exposure time: 24 hours	1.04	1.86	70
concentration: 82.7 (µM), S9 metabolic activation: with S9, exposure time: 3-4 hours	0.36	1.32	66.2
concentration: 82.7 (µM), S9 metabolic activation: without S9, exposure time: 24 hours	1.06	4.72	73.4
concentration: 103 (µM), S9 metabolic activation: with S9, exposure time: 3-4 hours	0.12	0.76	82.4
concentration: 103 (µM), S9 metabolic activation: without S9, exposure time: 24 hours	1	2.62	74.2
concentration: 129 (µM), S9 metabolic activation: with S9, exposure time: 3-4 hours	0.32	1.54	66.9
concentration: 129 (µM), S9 metabolic activation: without S9, exposure time: 24 hours	1.28	3.72	80.9
concentration: 162 (µM), S9 metabolic activation: with S9, exposure time: 3-4 hours	0.36	1.96	88.7
concentration: 162 (µM), S9 metabolic activation: without S9, exposure time: 24 hours	1.12	3.16	90
concentration: 202 (µM), S9 metabolic activation: with S9, exposure time: 3-4 hours	0.36	1.46	73.6
concentration: 202 (µM), S9 metabolic activation: without S9, exposure time: 24 hours	0.88	2.36	76.2
